Results as given in the supplement of paper PMC4967469.
IC50 is the fitted dose that halves viability relative to control wells, and lower means more sensitive; where the fit passes the top or lowest dose, that dose stands as a limit. AUC is the area under the same curve over the 256-fold range up to the top dose, as a fraction; values near 1 show little effect. The top dose, if marked as inferred, is not printed in the source and was worked back from the curve model.

Compound: CCCCCCCCCCCC1=C(O)C(=O)C=C(O)C1=O [Embelin]
Test: Viability of human cancer cell lines after 72 h of drug (GDSC screen)
Settings: top dose 32 µM; top dose inferred
Procedure: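 Human cancer cell lines in 384-well plates, medium with 10% serum, drug for 72 h over a 256-fold dose range (nine 2-fold or five 4-fold steps up to the top dose). Adherent lines were fixed and stained with the nucleic acid dye Syto60, suspension lines read with resazurin; signal relative to control wells, capped at 0 and 100%. One two-parameter sigmoid per drug and line, fitted in a mixed model over all curves with the slope shared within a line.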

Row | Cell Line | AUC | IC50 [µM]
1 | CAL-78 (chondrosarcoma, adherent) | 0.966 | > 32
2 | CAL-85-1 (breast, adherent) | 0.718 | 10
3 | CAL-120 (breast, adherent) | 0.836 | 30.4
4 | CAL-148 (breast, suspension) | 0.923 | > 32
5 | CAMA-1 (breast, adherent) | 0.661 | 6.3
6 | CAPAN-1 (pancreas, adherent) | 0.734 | 10.1
7 | CAS-1 (glioma, adherent) | 0.802 | 22.9
8 | CCF-STTG1 (glioma, adherent) | 0.808 | 16.7
9 | CCK-81 (large intestine, adherent) | 0.931 | > 32
10 | CCRF-CEM (lymphoblastic leukaemia, suspension) | 0.55 | 2.68
11 | CESS (acute myeloid leukaemia, suspension) | 0.62 | 4.06
12 | CGTH-W-1 (thyroid, adherent) | 0.81 | 
13 | CHL-1 (melanoma, adherent) | 0.652 | 5.15
14 | CHP-126 (neuroblastoma, suspension) | 0.891 | > 32
15 | CHP-212 (neuroblastoma, adherent) | 0.604 | 3.76
16 | CHSA0011 (chondrosarcoma, adherent) | 0.964 | > 32
17 | CHSA0108 (chondrosarcoma, adherent) | 0.797 | 17.8
18 | CHSA8926 (chondrosarcoma, adherent) | 0.751 | 14.6
19 | CL-11 (large intestine, adherent) | 0.963 | > 32
20 | CMK (acute myeloid leukaemia, suspension) | 0.763 | 9.93
21 | COLO-205 (large intestine, suspension) | 0.702 | 7.36
22 | COLO-320-HSR (large intestine, suspension) | 0.842 | 18.3
23 | COLO-668 (small cell lung carcinoma, adherent) | 0.812 | 17.1
24 | COLO-678 (large intestine, semi-adherent) | 0.972 | > 32
25 | COLO-679 (melanoma, adherent) | 0.598 | 3.84
26 | COLO-680N (oesophagus, adherent) | 0.819 | 22.7
27 | COLO-684 (endometrium, suspension) | 0.841 | 26.4

Row | Cell Line | AUC | IC50 [µM]
28 | COLO-783 (melanoma, adherent) | 0.965 | > 32
29 | COLO-792 (melanoma, adherent) | 0.866 | 27.9
30 | COLO-800 (melanoma, adherent) | 0.837 | 20.5
31 | COLO-824 (breast, adherent) | 0.864 | 28.9
32 | COLO-829 (melanoma, adherent) | 0.64 | 5.86
33 | COR-L23 (large cell lung carcinoma, adherent) | 0.759 | 10.9
34 | COR-L88 (small cell lung carcinoma, adherent) | 0.801 | 19.2
35 | COR-L95 (small cell lung carcinoma, adherent) | 0.967 | > 32
36 | COR-L105 (lung adenocarcinoma, adherent) | 0.754 | 13
37 | COR-L279 (small cell lung carcinoma, suspension) | 0.936 | > 32
38 | CP50-MEL-B (melanoma, adherent) | 0.857 | 25.5
39 | CP66-MEL (melanoma, adherent) | 0.62 | 
40 | CPC-N (small cell lung carcinoma, suspension) | 0.962 | > 32
41 | CS1 (bone, adherent) | 0.819 | 21.1
42 | CTB-1 (B-cell lymphoma, suspension) | 0.876 | > 32
43 | CTV-1 (acute myeloid leukaemia, suspension) | 0.735 | 7.94
44 | CW-2 (large intestine, adherent) | 0.988 | > 32
45 | Ca9-22 (head and neck, adherent) | 0.776 | 11.9
46 | Ca-Ski (cervix, adherent) | 0.831 | 23.8
47 | CaR-1 (large intestine, adherent) | 0.859 | > 32
48 | Calu-3 (lung adenocarcinoma, adherent) | 0.702 | 8.64
49 | Calu-6 (lung adenocarcinoma, adherent) | 0.652 | 5.66
50 | Caov-3 (ovary, adherent) | 0.916 | > 32
51 | Caov-4 (ovary, adherent) | 0.846 | > 32
52 | Capan-2 (pancreas, adherent) | 0.831 | 26.4
53 | ChaGo-K-1 (non-small cell lung carcinoma, adherent) | 0.695 | 7.8
54 | D-263MG (glioma, adherent) | 0.856 | > 32

Row | Cell Line | AUC | IC50 [µM]
55 | D-283MED (medulloblastoma, adherent) | 0.813 | 15.4
56 | D-392MG (glioma, adherent) | 0.807 | 24.1
57 | D-502MG (glioma, adherent) | 0.837 | > 32
58 | D-542MG (glioma, adherent) | 0.554 | 2.9
59 | DAN-G (pancreas, adherent) | 0.859 | 21.3
60 | DB (B-cell lymphoma, suspension) | 0.919 | > 32
61 | DBTRG-05MG (glioma, adherent) | 0.781 | 15.8
62 | DEL (lymphoid neoplasm, suspension) | 0.776 | 10.1
63 | DG-75 (Burkitt lymphoma, suspension) | 0.963 | > 32
64 | DJM-1 (skin, adherent) | 0.739 | 9.56
65 | DK-MG (glioma, adherent) | 0.963 | > 32
66 | DMS-53 (small cell lung carcinoma, adherent) | 0.82 | 20.2
67 | DMS-79 (small cell lung carcinoma, suspension) | 0.978 | > 32
68 | DMS-114 (small cell lung carcinoma, adherent) | 0.877 | > 32
69 | DMS-273 (small cell lung carcinoma, adherent) | 0.637 | 4.9
70 | DND-41 (T-cell leukaemia, suspension) | 0.648 | 4.85
71 | DOHH-2 (B-cell lymphoma, suspension) | 0.72 | 8.25
72 | DOK (head and neck, adherent) | 0.761 | 17.3
73 | DSH1 (bladder, adherent) | 0.9 | > 32
74 | DU-145 (prostate, adherent) | 0.747 | 11.3
75 | DU-4475 (breast, suspension) | 0.761 | 9.45
76 | Daoy (medulloblastoma, adherent) | 0.689 | 6.38
77 | Daudi (Burkitt lymphoma, suspension) | 0.665 | 5.39
78 | Detroit562 (head and neck, adherent) | 0.774 | 12
79 | DoTc2-4510 (cervix, adherent) | 0.804 | 15
80 | EB2 (Burkitt lymphoma, suspension) | 0.67 | 5.66
